According to PubChem BioAssay AID686979 (National Center for Advancing Translational Sciences (NCATS), 2013):
The campaign covered roughly 420,000 compounds. About 50,000 (12%) were called active. The shares of active, inactive and inconclusive entries below differ from those in the screen. Calls follow the shape of the dose curve; as a rule, active = well fitted inhibition curve with a large enough effect; inconclusive = small, poorly fitted or top-dose-only effect; inactive = flat fitted curve, though single readings scatter. Potencies of inconclusive entries are left out as doubtful fits.

Test: qHTS for Inhibitors of human tyrosyl-DNA phosphodiesterase 1 (TDP1): qHTS in cells in presence of CPT; also: nearly all actives have a fitted effect of over 55% in size
Settings: chicken DT40 Tdp1-/-;hTDP1 cells + 20 nM CPT, ATP luminescence, 48 h; activity change, negative = growth inhibition: at 46.2 µM (top of the series)
In short: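 Cell growth measured by CellTiter-Glo luminescence after a minimum 48 h, 37 C compound exposure with 20 nM CPT in Tdp1-knockout DT40 cells stably expressing hTDP1, seeded 400/well; qHTS titration format.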
% is scaled to controls: 0 for no effect and ±100 for the full control effect; potency is read from the fitted curve at half-maximal effect; tags tell the direction and shape of the fitted curve.

SMILES	Potency	activity change, negative = growth inhibition
CCCCNS(=O)(=O)c1ccc(Br)cc1N1CCC[C@H]1CO	inactive	–
Cc1ccc(OCCOC(=O)CCc2nc3ccccc3c(=O)[nH]2)cc1	inactive	–
COCCn1c(=O)c(CCc2ccccc2)nc2cnc(Oc3cccc(Cl)c3)nc21	inconclusive [inhibitor, single point]	–
Cc1ccc(NC(=O)COc2coc(CN3CCc4ccccc43)cc2=O)c(C)c1	inconclusive [inhibitor, single point]	–
Cn1cc(Br)c(-c2cccc(N3C(=O)CCCC3=O)c2)n1	inactive	–
CCCC1c2ccc(C)n2CCN1C(=O)Nc1ccc(F)cc1 (stereo unspecified)	inconclusive [inhibitor, partial curve, poor fit]	–
O=C1C(=O)N(CCCn2ccnc2)C(c2cccnc2)/C1=C(/O)c1ccc(F)cc1 (stereo unspecified)	inactive	–
Cc1cc(=O)[nH]c(N/N=C/c2cc(C)n(CC(F)(F)F)c2C)n1	active: 8.2 µM	–
CCOC(=O)/C(=C\C=C1/Sc2cc(OCC)c(OCC)cc2N1CC)C(C)=O	active: 1.84 µM	–
COc1cc2c(cc1OC)C(COc1ccc3c(C)cc(=O)oc3c1)N(C(=O)c1ccccc1F)CC2 (stereo unspecified)	inconclusive [inhibitor, single point]	–
Cc1cc(C)c(S(=O)(=O)Nc2ccccc2C(=O)N2CCCC2)c(C)c1	inconclusive [inhibitor, single point]	–
CC(=O)Nc1ccc(CN2CCc3c([nH]c4ccccc34)C2c2ccccn2)cc1 (stereo unspecified)	inconclusive [inhibitor, partial curve, poor fit]	–
COc1ccccc1NC(=S)N(Cc1ccco1)Cc1cc2cc(C)cc(C)c2[nH]c1=O	active: 10.3 µM	–
Fc1ccc(NC(=S)NC2CCCCC2)c(F)c1F	active: 20.6 µM	–
COc1cc2c(cc1OC)n(Cc1ccc([N+](=O)[O-])cc1)c(=O)n1nc(-c3ccccc3)nc21	inconclusive [inhibitor, partial curve]	–
Cc1cc(C(=O)CN(Cc2ccc(F)cc2)S(=O)(=O)c2ccc3c(c2)OCCO3)c(C)n1C	inconclusive [inhibitor, partial curve]	–
O=c1[nH][nH]c2c1C(c1cccc(C(F)(F)F)c1)OC(CCc1ccccc1)C2 (stereo unspecified)	inconclusive [inhibitor, partial curve]	–
Cc1ccc(CNC(=O)c2ccc(-n3c(C)cc4c3CCCC4)cc2)cc1	inconclusive [inhibitor, single point]	–
O=C(NC1CCN(Cc2ccccc2)CC1)c1ccccc1OCc1ccccc1Cl	active: 16.4 µM	–
Cc1cc(C)c(C)c(OCCOCCNCc2ccccc2)c1	inconclusive [inhibitor, single point]	–
O=C(NC1CC1)c1ccc(S(=O)(=O)NC2CCCCCC2)cc1	inconclusive [inhibitor, partial curve]	–
CCCCCC(=O)N1C[C@@H](n2cc(-c3ccc(F)cc3)nn2)[C@H](O)C[C@@H]1c1ccc(OC)cc1	inconclusive [inhibitor, single point]	–
CC1CCN(c2oc(-c3cccs3)nc2S(=O)(=O)c2ccc(Cl)cc2)CC1	inconclusive [inhibitor, single point]	–
CC1=C(C(=O)OCc2ccccc2)C(c2ccc([N+](=O)[O-])cc2)NC(=O)N1CCCCCC(=O)O (stereo unspecified)	inconclusive [inhibitor, single point]	–

SMILES	Potency	activity change, negative = growth inhibition
C/C(=N/NC(N)=S)c1ccc(Br)s1	active: 8.2 µM	–
O=C(CSc1ccc(Cl)cc1)NC(=O)NCc1ccco1	active: 16.4 µM	–
O=C1c2ccccc2C(c2nnnn2-c2ccc3c(c2)OCCO3)N1CCc1ccc(O)cc1 (stereo unspecified)	inconclusive [inhibitor, single point]	–
CC1(C)C2CC=C(/C=N/NC(=O)C3CC3)C1C2 (stereo unspecified)	inactive	–
CNC(=O)c1ccc2c(c1)N=C(C)c1cc(C)ccc1S2	active: 3.66 µM	–
CCOC(=O)C1=NNC(C(=O)c2ccc(C)cc2)C1c1ccc(C)cc1 (stereo unspecified)	inconclusive [inhibitor, single point]	–
O=C(CN1C(=O)NC2(CCCC2)C1=O)Nc1cccc(Cl)c1	inactive	–
Oc1ccccc1N1CCN(c2ncnc3scc(-c4ccccc4)c23)CC1	inconclusive [inhibitor, single point]	–
Cc1ccc(C)c(S(=O)(=O)c2cn(Cc3ccccc3)c3cc(F)c(F)cc3c2=O)c1	inconclusive [inhibitor, single point]	–
COc1ccc(N(C(=O)c2snc(C(N)=O)c2N)C(C(=O)NC2CCCCC2)c2ccc(F)cc2)c(OC)c1 (stereo unspecified)	active: 2.91 µM	–
O=C(NCc1ccco1)C1CCN(S(=O)(=O)c2cccc([N+](=O)[O-])c2)CC1	inactive	–
Cc1cccc(NC(=O)C2CCCN(C(=O)NCc3ccccc3)C2)c1C (stereo unspecified)	–	inconclusive: 0.397% [inhibitor]
COc1cccc(N(C(=O)c2ccn[nH]2)C2(C(=O)Nc3c(C)cccc3C)CCCCC2)c1	–	inconclusive: -34.3% [inhibitor]
Cc1[nH]c(=S)[nH]c(=O)c1Cc1c(O)ccc2ccccc12	inactive	–
CCCn1cnc2c(SCc3ccccc3Cl)nc(N)nc21	inconclusive [inhibitor, single point]	–
Cc1ccc(OCC(=O)Nc2ccc3nc(SCC(=O)N4CCCC4)sc3c2)cc1	inconclusive [inhibitor, single point]	–
Cc1cc(C(=O)COC(=O)c2ccc(O)cc2)c(C)n1CCc1ccc(F)cc1	inactive	–
CC(C)N(C(=S)NCc1ccccc1)C(C)C	inactive	–
COc1ccc(C(=O)N/N=C/c2ccc3cccc(O)c3n2)cc1	inconclusive [inhibitor, single point]	–
CSC1=N/C(=C\c2ccc(Cl)cc2)C(=O)N1N(C)C	inconclusive [inhibitor, single point]	–
Cc1cc(=O)[nH]c2sc(C(=O)N3c4ccccc4CC3C)c(N)c12 (stereo unspecified)	inconclusive [inhibitor, partial curve, poor fit]	–
O=C1CCCC2=C1C(c1ccc(O)c(O)c1)Nc1ccc3ccccc3c12 (stereo unspecified)	inconclusive [inhibitor, single point]	–
Oc1ccc(Nc2nc(N3CCCC3)c3ccccc3n2)cc1	active: 25.9 µM	–
COc1ccc(C2CC(C(F)(F)F)n3nc(C(=O)O)c(Br)c3N2)cc1 (stereo unspecified)	inactive	–

SMILES	Potency	activity change, negative = growth inhibition
Cc1nc(-c2cccc(NC(=O)C3CCCCC3)c2)cs1	inconclusive [inhibitor, single point]	–
CCOC(=O)C(/C=N/c1cc(C)nn1-c1ccccc1)=C(\C)O	inactive	–
O=C(Nc1ccc(F)cc1F)c1ccc2nc(N3CCOCC3)sc2c1	inconclusive [inhibitor, full curve]	–
COc1ccc(C(c2nnnn2CCc2ccccc2)N2CCN(C3CCCC3)CC2)cc1 (stereo unspecified)	inconclusive [inhibitor, full curve, poor fit]	–
COc1ccc(NC(=O)COC(=O)CCc2ccccc2)c(OC)c1	inactive	–
c1ccc(Cn2ncc3c(NCc4ccco4)ncnc32)cc1	inconclusive [inhibitor, single point]	–
O=C(Cn1cc(SCc2cccc(F)c2)c2ccccc21)N1CCOCC1	inconclusive [inhibitor, single point]	–
Cc1ccc2nc(Cl)c(C3CC(c4cccs4)=NN3S(C)(=O)=O)cc2c1 (stereo unspecified)	inconclusive [inhibitor, single point]	–
Cc1ccccc1NC(=O)c1ccc(N/N=C/c2ccccc2O)c([N+](=O)[O-])c1	active: 8.2 µM	–
Cc1cccc(NC(=O)C2CCN(S(=O)(=O)c3ccc4c(c3)C(C)(C)C(=O)N4C)CC2)c1C	inconclusive [inhibitor, single point]	–
CC(C)(C)C(=O)Nc1sc2c(c1C#N)CCN(Cc1ccccc1)C2	inconclusive [inhibitor, single point]	–
Cc1nn(C)c(C(=O)Sc2ccccc2)c1[N+](=O)[O-]	inconclusive [inhibitor, single point]	–
CC(C)(C)C1CCc2oc3ccc(NS(=O)(=O)c4cc(Cl)ccc4Cl)cc3c2C1 (stereo unspecified)	active: 25.9 µM	–
Cc1cc(C)c2sc(N(Cc3cccnc3)C(=O)CCS(=O)(=O)c3ccccc3)nc2c1	active: 4.11 µM	–
Cc1cccc(CSc2cn(CC(=O)N3CCCCC3)c3ccccc23)c1	inconclusive [inhibitor, single point]	–
O=C(NC1CCCCC1)N1CCN(C(=O)c2ccco2)CC1	inactive	–
N#CCCn1c(=S)[nH]c2ccccc21	inactive	–
Cc1ccc(Cl)cc1NC(=O)COC(=O)CC(C)(C)C	inconclusive [inhibitor, partial curve]	–
CCOC(=O)c1c(NC(C)=O)sc2c(O)cccc12	inactive	–
CCN(CC(=O)Nc1c(F)cccc1F)C(=O)c1cc(S(=O)(=O)N(CC)CC)ccc1N1CCCCC1	inconclusive [inhibitor, single point]	–
Cc1cc2nc(-c3cccnc3SCC(=O)NC(C)C)[nH]c2cc1C	inconclusive [inhibitor, single point]	–
O=S(=O)(c1ccccc1)C(/C=N\O)/C=C/c1ccccc1 (stereo unspecified)	inconclusive [inhibitor, single point]	–
Cc1cc(-c2nnc3sc(C4CCCCC4)nn23)n[nH]1	inconclusive [inhibitor, single point]	–
